The other results are listed elsewhere or left out. These are further read-outs of the screen, such as a control signal, another cell line or another target. No call is given for them.
Key:
Assay in all cases: Primary Screen for Target Class Profiling of Small Molecule Inhibitors of Methyltransferases
[1] = target: Glycine N-methyltransferase (Homo sapiens) (UniProt Q14749); details: purified enzyme, MTase-Glo SAH luminescence; measured here: GNMT inhibition; at 40 µM; stronger effect = lower value
Summary of the method: (§1)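 Each enzyme was reacted with SAM and its substrate, with compounds tested once at 40 uM; SAH formed was read by MTase-Glo luminescence.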

[2] = target: Guanidinoacetate N-methyltransferase (Homo sapiens) (UniProt Q14353); details: purified enzyme, MTase-Glo SAH luminescence; measured here: GAMT inhibition; at 40 µM; stronger effect = lower value
Summary of the method: as §1

[3] = target: Histamine N-methyltransferase (Homo sapiens) (UniProt P50135); details: purified enzyme, MTase-Glo SAH luminescence; measured here: HNMT inhibition; at 40 µM; stronger effect = lower value
Summary of the method: as §1

[4] = target: Nicotinamide N-methyltransferase (Homo sapiens) (UniProt P40261); details: purified enzyme, MTase-Glo SAH luminescence; measured here: NNMT inhibition; at 40 µM; stronger effect = lower value
Summary of the method: as §1

[5] = target: Phenylethanolamine N-methyltransferase (Homo sapiens) (UniProt P11086); details: purified enzyme, MTase-Glo SAH luminescence; measured here: PNMT inhibition; at 40 µM; stronger effect = lower value
Summary of the method: as §1
% is set by controls: 0 for no effect and ±100 for the full control effect.

Which activity change, negative = inhibition [1] does the source give for CCC/C=C/C=C/C1CC(O)C2(O)C(=O)OCC12 (stereo not given) here?
Its activity change, negative = inhibition is 9.11%.

And the activity change, negative = inhibition [2]?
The activity change, negative = inhibition was 4.12%.

And the activity change, negative = inhibition [3]?
The activity change, negative = inhibition was 9.03%.

And the activity change, negative = inhibition [4]?
Its activity change, negative = inhibition is -10.1%.

And the activity change, negative = inhibition [5]?
The activity change, negative = inhibition was -0.449%.

For COc1ccc(C(=O)N2CCCC(n3cc(-c4nc(C5CC5)no4)nn3)C2)cn1 (stereo not given), which activity change, negative = inhibition [1] is on record?
The activity change, negative = inhibition was 0.785%.

What about the activity change, negative = inhibition [2] of the same compound?
Its activity change, negative = inhibition is -1.8%.

What about the activity change, negative = inhibition [3] of the same compound?
Its activity change, negative = inhibition is 0.166%.

What about the activity change, negative = inhibition [4] of the same compound?
The activity change, negative = inhibition was -3.79%.

And the activity change, negative = inhibition [5]?
Its activity change, negative = inhibition is 0.82%.

With O=C(CCc1nc2ccccc2[nH]1)N1CCC(c2nc(CCOCC3CC3)no2)C1 (stereo not given) as the compound, how does the activity change, negative = inhibition [1] read?
Its activity change, negative = inhibition is -7.15%.

And the activity change, negative = inhibition [2]?
The activity change, negative = inhibition was -1.01%.

What about the activity change, negative = inhibition [3] of the same compound?
The activity change, negative = inhibition was 0.827%.

And the activity change, negative = inhibition [4]?
Its activity change, negative = inhibition is -1.97%.

What about the activity change, negative = inhibition [5] of the same compound?
The activity change, negative = inhibition was -0.588%.

For CCOC(=O)c1cc2n(n1)CC(C)(C(=O)NC1CCCCC1)N(Cc1ccc(CC)cc1)C2=O (stereo not given), which activity change, negative = inhibition [1] is on record?
Its activity change, negative = inhibition is 0.903%.

And the activity change, negative = inhibition [2]?
Its activity change, negative = inhibition is 0.575%.

What about the activity change, negative = inhibition [3] of the same compound?
The activity change, negative = inhibition was -0.324%.

And the activity change, negative = inhibition [4]?
Its activity change, negative = inhibition is -2.02%.

What about the activity change, negative = inhibition [5] of the same compound?
The activity change, negative = inhibition was 4.9%.

Which activity change, negative = inhibition [1] does the source give for C=CC1(C)C=C2C(=O)OC(=O)C3=C(CCCC3(C)C)C2(O)CC1 (stereo not given) here?
Its activity change, negative = inhibition is 1.12%.

And the activity change, negative = inhibition [2]?
The activity change, negative = inhibition was 5.9%.

And the activity change, negative = inhibition [3]?
Its activity change, negative = inhibition is 1.99%.

And the activity change, negative = inhibition [4]?
The activity change, negative = inhibition was -10.4%.

And the activity change, negative = inhibition [5]?
Its activity change, negative = inhibition is 3.39%.

With COc1cccc(-n2nc(C(=O)O)cc2-c2ccc(C3CCCCC3)c(Cl)c2)c1 as the compound, how does the activity change, negative = inhibition [1] read?
The activity change, negative = inhibition was -36.9%.

And the activity change, negative = inhibition [2]?
The activity change, negative = inhibition was 7.93%.

What about the activity change, negative = inhibition [3] of the same compound?
The activity change, negative = inhibition was -3.53%.

And the activity change, negative = inhibition [4]?
Its activity change, negative = inhibition is -91.2%.

What about the activity change, negative = inhibition [5] of the same compound?
Its activity change, negative = inhibition is -6.72%.

What does the source list for O=C(O)C1(c2ccccc2)CCN(S(=O)(=O)c2cccs2)CC1?
activity change, negative = inhibition [1]: -0.484%; activity change, negative = inhibition [2]: -2.19%; activity change, negative = inhibition [3]: 3.11%; activity change, negative = inhibition [4]: -0.384%; activity change, negative = inhibition [5]: -8.89%

How did the activity change, negative = inhibition [1] turn out when COc1c2c(cc3c1-c1c(cc4c(c1OC)OCO4)CC(C)C(C)C3)OCO2 (stereo not given) was run?
Its activity change, negative = inhibition is -2.29%.

What about the activity change, negative = inhibition [2] of the same compound?
The activity change, negative = inhibition was -12.5%.

And the activity change, negative = inhibition [3]?
Its activity change, negative = inhibition is 2.91%.

What about the activity change, negative = inhibition [4] of the same compound?
Its activity change, negative = inhibition is -22.4%.

What about the activity change, negative = inhibition [5] of the same compound?
The activity change, negative = inhibition was -7.27%.

With O=C(CC1CCN(C(=O)c2cc(F)ccc2F)C1)NC1CC1 (stereo not given) as the compound, how does the activity change, negative = inhibition [1] read?
Its activity change, negative = inhibition is -0.371%.

And the activity change, negative = inhibition [2]?
Its activity change, negative = inhibition is 1.18%.

And the activity change, negative = inhibition [3]?
Its activity change, negative = inhibition is -0.715%.

And the activity change, negative = inhibition [4]?
Its activity change, negative = inhibition is -2.17%.

And the activity change, negative = inhibition [5]?
The activity change, negative = inhibition was -0.328%.

CCCn1c(=O)c2ccccc2n2c(=O)n(CC(=O)NCc3ccccc3Cl)nc12 was tested. Which activity change, negative = inhibition [1] did it give?
Its activity change, negative = inhibition is -2.09%.

What about the activity change, negative = inhibition [2] of the same compound?
The activity change, negative = inhibition was 5.83%.

And the activity change, negative = inhibition [3]?
Its activity change, negative = inhibition is 3.01%.

And the activity change, negative = inhibition [4]?
The activity change, negative = inhibition was -9.58%.

What about the activity change, negative = inhibition [5] of the same compound?
Its activity change, negative = inhibition is -0.001%.

Which activity change, negative = inhibition [1] does the source give for O=C(CCc1nnc2n(Cc3ccccc3)c(=O)c3ccccc3n12)NCCc1c[nH]c2ccccc12 here?
Its activity change, negative = inhibition is -2.8%.

And the activity change, negative = inhibition [2]?
The activity change, negative = inhibition was 0.124%.

And the activity change, negative = inhibition [3]?
Its activity change, negative = inhibition is -1.47%.

And the activity change, negative = inhibition [4]?
Its activity change, negative = inhibition is 10.7%.

And the activity change, negative = inhibition [5]?
The activity change, negative = inhibition was 3.13%.

CCCC1c2ccc(C)n2CCN1C(=O)Nc1cccc(C)c1C (stereo not given) was tested. Which activity change, negative = inhibition [1] did it give?
The activity change, negative = inhibition was 3.79%.

What about the activity change, negative = inhibition [2] of the same compound?
Its activity change, negative = inhibition is 6.71%.

And the activity change, negative = inhibition [3]?
Its activity change, negative = inhibition is 2.45%.

What about the activity change, negative = inhibition [4] of the same compound?
Its activity change, negative = inhibition is 16.8%.

And the activity change, negative = inhibition [5]?
Its activity change, negative = inhibition is 2.16%.

Cc1ccc(S(=O)(=O)c2nnn3c2nc(N2CCN(c4ccccn4)CC2)c2ccccc23)cc1 was tested. Which activity change, negative = inhibition [1] did it give?
Its activity change, negative = inhibition is -0.062%.

What about the activity change, negative = inhibition [2] of the same compound?
Its activity change, negative = inhibition is 2.21%.

What about the activity change, negative = inhibition [3] of the same compound?
The activity change, negative = inhibition was -5.11%.

And the activity change, negative = inhibition [4]?
Its activity change, negative = inhibition is -4.07%.

What about the activity change, negative = inhibition [5] of the same compound?
Its activity change, negative = inhibition is -0.587%.

How did the activity change, negative = inhibition [1] turn out when CC(C)CCNC(=O)c1ccc2c(=O)nc3c(-c4ccccc4F)n[nH]n3c2c1 was run?
The activity change, negative = inhibition was -16.2%.

What about the activity change, negative = inhibition [2] of the same compound?
The activity change, negative = inhibition was 0%.

What about the activity change, negative = inhibition [3] of the same compound?
Its activity change, negative = inhibition is 2%.

And the activity change, negative = inhibition [4]?
The activity change, negative = inhibition was -0.802%.

And the activity change, negative = inhibition [5]?
The activity change, negative = inhibition was -2.12%.

With COc1ccc(-n2c(CN)n[nH]c2=O)cc1OC as the compound, how does the activity change, negative = inhibition [1] read?
The activity change, negative = inhibition was -4.29%.

What about the activity change, negative = inhibition [2] of the same compound?
The activity change, negative = inhibition was -5.73%.

What about the activity change, negative = inhibition [3] of the same compound?
Its activity change, negative = inhibition is -1.76%.

What about the activity change, negative = inhibition [4] of the same compound?
The activity change, negative = inhibition was -8.59%.

What about the activity change, negative = inhibition [5] of the same compound?
The activity change, negative = inhibition was -4.63%.

Which activity change, negative = inhibition [1] does the source give for O=C1NC2(CCN(Cc3ccccc3)C2)COc2ccccc21 (stereo not given) here?
Its activity change, negative = inhibition is -6.06%.

And the activity change, negative = inhibition [2]?
The activity change, negative = inhibition was -2.08%.

What about the activity change, negative = inhibition [3] of the same compound?
The activity change, negative = inhibition was -4.18%.

What about the activity change, negative = inhibition [4] of the same compound?
The activity change, negative = inhibition was -15.6%.

And the activity change, negative = inhibition [5]?
Its activity change, negative = inhibition is -2.95%.

Which activity change, negative = inhibition [1] does the source give for CCc1nc(NC(CCn2cncn2)c2ccccc2)c2cnn(C)c2n1 (stereo not given) here?
The activity change, negative = inhibition was -2.12%.

What about the activity change, negative = inhibition [2] of the same compound?
Its activity change, negative = inhibition is -3.5%.

What about the activity change, negative = inhibition [3] of the same compound?
The activity change, negative = inhibition was -0.561%.

What about the activity change, negative = inhibition [4] of the same compound?
Its activity change, negative = inhibition is -4.86%.

And the activity change, negative = inhibition [5]?
The activity change, negative = inhibition was -1.56%.

CC(C)Cc1cc(C(=O)N2C[C@H](C3CC3)[C@@H](N)C2)n(C)n1 was tested. Which activity change, negative = inhibition [1] did it give?
Its activity change, negative = inhibition is -0.451%.

And the activity change, negative = inhibition [2]?
Its activity change, negative = inhibition is -5.33%.

And the activity change, negative = inhibition [3]?
The activity change, negative = inhibition was 1.73%.

What about the activity change, negative = inhibition [4] of the same compound?
Its activity change, negative = inhibition is -7.91%.

And the activity change, negative = inhibition [5]?
The activity change, negative = inhibition was 9.41%.

Reference: PubChem BioAssay AID1745853 (National Center for Advancing Translational Sciences (NCATS), 2022)
